Data as given in PubChem BioAssay AID624296 (National Center for Advancing Translational Sciences (NCATS), 2012).
Out of some 350,000 compounds screened, about 9,900 (2.8%) were called active. Inconclusive means that the source gave no clear call. Such entries were picked first, then a sample of the others. Calls come from the whole dose curve; as a rule, active = well fitted activation curve with a large enough effect; inconclusive = small, poorly fitted or top-dose-only effect; inactive = no such curve, though single readings can be large or run the other way. No potency is given beside an inconclusive call; the fits are too rough.

Assay: A quantitative high throughput screen for small molecules that induce DNA re-replication in MCF 10a normal breast cells. Note: nearly all actives have a fitted effect of over 50% in size.
Conditions: MCF 10A DNA re-replication, Hoechst nuclear intensity, 48 h; series mostly up to 46.1 µM
Potency is the fitted concentration of half-maximal effect; tags give direction and shape of the fitted curve.

| SMILES | Potency |
| --- | --- |
| CCc1nonc1NC(=O)c1oc2cc(C)c(C)cc2c1C | inconclusive [activator, single point] |
| O=C(CCCNS(=O)(=O)c1cccc2nsnc12)NCc1ccc(F)cc1 | inactive |
| COc1ccc(C)c2sc(=NC(=O)c3ccccc3)n(C)c12 | inactive |
| COc1cc(C(=O)N2CCN(c3cccc(C)c3C)CC2)cc(OC)c1OC | active: 10.3 µM |
| CC(=O)Oc1ccc(N2C(=O)C3C(C2=O)C2C=CC3C23CC3)cc1[N+](=O)[O-] (centres undefined) | inactive |
| O=C1NC(c2ccccc2)C(C(=O)c2cccs2)=C1O (centres undefined) | inactive |
| CCn1nc(C(=O)N2CCN(Cc3nc4ccccc4s3)CC2)c2ccccc2c1=O | inconclusive [activator, full curve] |
| S=C(NCCSCc1c(Cl)cccc1Cl)Nc1ccccc1 | inconclusive [activator, partial curve, poor fit] |
| Cc1cc(C)nc(N2CCCC(C(=O)Nc3nc4ccc(S(C)(=O)=O)cc4s3)C2)n1 (centres undefined) | inactive |
| CCOC(=O)c1ccc(NC(=S)N(CCCN2CCCC(C)C2)Cc2cccs2)cc1 (centres undefined) | inconclusive [activator, single point] |
| Cc1cc(C)nc(NC(=O)/C=C/c2ccc(Cl)cc2Cl)c1 | inconclusive [activator, partial curve, poor fit] |
| O=C(O)CN1C(=O)/C(=C/c2ccsc2)SC1=S | inconclusive [activator, single point] |
| Cc1cc(=O)oc2cc(OCC3CC(c4ccc(Cl)cc4)=NO3)ccc12 (centres undefined) | inconclusive [activator, full curve, poor fit] |
| Cc1nc2ccccn2c1C(=O)N/N=C/c1cc(C)n(-c2ccc(Cl)cc2)c1C | inactive |
| O=C(Nc1ccc(Cl)cc1)Nc1nnc(CSc2ccc(Cl)cc2)s1 | inconclusive [activator, single point] |
| O=c1[nH]cnc2c1ncn2C1OCC(O)C(O)C1O (centres undefined) | inactive |
| Nc1c(C(=O)O)sc2nc(-c3ccccc3)cc(-c3ccccc3)c12 | inconclusive [activator, single point] |
| N#CC1=C(N)Oc2cc(N)ccc2C1c1ccc(F)cc1 (centres undefined) | inconclusive [activator, single point] |
| CN(Cc1ccccc1)c1ncnc2sccc12 | inconclusive [activator, partial curve, poor fit] |
| COc1cc(C(=O)O)ccc1OCc1c(C)noc1C | inactive |
| CCOC(=O)c1c(-c2ccc(C)cc2)csc1NC(=O)C1CC=CCC1C(=O)O (centres undefined) | inconclusive [activator, partial curve] |
| CNc1nc(-c2ccc3c(c2)CCN3C(=O)c2ccccc2C)cs1 | inconclusive [activator, partial curve, poor fit] |
| O=C(CSc1nnc(NC(=O)C2CCC2)s1)NC1CC1 | inconclusive [activator, single point] |

| SMILES | Potency |
| --- | --- |
| CN1CCN(C(=O)CN(Cc2ccccc2)S(C)(=O)=O)CC1 | inconclusive [activator, full curve, poor fit] |
| CCOC(=O)c1c(-n2c(C)cc(C=O)c2C)sc2c1CCCC2 | inconclusive [activator, single point] |
| O=C(CC(c1ccccc1)c1ccccc1O)NCCc1ccccc1 (centres undefined) | inactive |
| Cc1ccc(-c2csc(=S)n2CC(=O)OCC(=O)NC(C)C(C)C)cc1 (centres undefined) | inconclusive [activator, full curve, poor fit] |
| Cc1cccc(NC(=O)NNC(=O)c2cc(-c3ccccc3Cl)nc3ccccc23)c1 | inconclusive [activator, single point] |
| CC[C@H](C)C(=O)O[C@H]1CCC=C2C=C[C@H](C)[C@H](CC[C@@H]3C[C@@H](O)CC(=O)O3)[C@H]21 | inactive |
| CC[C@]12c3[nH]c4cc(CCC(=O)N(C)C)ccc4c3CCN1C(=O)[C@@H](CC(=O)NCc1ccco1)C[C@@H]2C(=O)N1CCN(C(=O)c2ccco2)CC1 | inactive |
| CCCCOC(=O)Cn1c(=O)c2c(nc3n2CCCCN3c2ccc(C)cc2)n(C)c1=O | inconclusive [activator, partial curve, poor fit] |
| O=C1C(Oc2ccccc2)C(c2cccs2)N1Cc1ccc2c(c1)OCO2 (centres undefined) | inconclusive [activator, partial curve, poor fit] |
| O=C(Nc1cc(C(F)(F)F)ccc1F)C1CCCCC1 | inconclusive [activator, partial curve, poor fit] |
| O=C(CN(Cc1ccco1)C(=O)Cn1nnc(-c2ccc(F)cc2)n1)NC1CCCC1 | inactive |
| Cn1c(=O)c(Nc2ccc(O)cc2)c2c3c(cccc31)C(=O)c1ccccc1-2 | inconclusive [activator, single point] |
| CN(CCc1ccccc1)C(=O)c1cc(COc2ccc(F)cc2Cl)on1 | inactive |
| COCCn1c(C)cc(C2=NNC(=NC(C)(C)C)SC2)c1C | inconclusive [activator, partial curve, poor fit] |
| COCCNC(=S)N/N=C/c1ccc(N2CCOCC2)cc1 | inactive |
| CCOC(=O)c1c(NC(=O)C2(C)Cc3ccccc3C(=O)O2)sc2c1CCCC2 (centres undefined) | inconclusive [activator, full curve, poor fit] |
| O=S(=O)(c1ccccc1)N1CCC(N2CCCCCC2)CC1 | inconclusive [activator, partial curve] |
| CC(C)NS(=O)(=O)c1ccc(Oc2ncc(C(F)(F)F)cc2Cl)cc1 | inconclusive [activator, partial curve, poor fit] |
| COc1ccccc1COn1c(=O)c(-c2ccco2)[n+]([O-])c2ccccc21 | inactive |
| Cc1ccc(C(C)C)c(OCc2nn(CC(=O)c3ccc(Cl)cc3)c3[n+]2CCCCC3)c1 | inconclusive [activator, full curve, poor fit] |
| CC1Cc2cc(S(=O)(=O)NCc3ccccc3)ccc2N1C(=O)C1CCC1 (centres undefined) | inconclusive [activator, partial curve, poor fit] |
| CCN(CC)CCN(C(=O)c1ccc2ccccc2c1)c1nc2cc3c(cc2s1)OCO3 | inactive |
| COc1ccc(NC(=O)N2CCN(S(C)(=O)=O)CC2)cc1 | inactive |

| SMILES | Potency |
| --- | --- |
| O=C(CC12CC3CC(CC(C3)C1)C2)Nc1ccc2c(c1)COC2=O | inconclusive [activator, single point] |
| CCC1C(=O)N=C(SCC(=O)Nc2ccc(Br)cn2)NC1=O (centres undefined) | inactive |
| Cc1[nH]n(-c2ccccc2)c(=O)c1C=Nc1ccc(S(=O)(=O)Nc2nccs2)cc1 | inactive |
| Cc1oc2c(c(C)cc3oc(=O)c(CC(=O)N[C@@H](CCCNC(N)=O)C(=O)O)c(C)c32)c1C | inactive |
| Cc1c(C(=O)O)cccc1-c1ccc(/C=N/Nc2ccc(Br)cc2)o1 | active: 18.4 µM |
| O=C1C2CCCCN2C(=O)N1CCN1CCN(c2ccc([N+](=O)[O-])cc2)CC1 (centres undefined) | inactive |
| CSc1sccc1/C=N/NC(=O)c1ccncc1 | inconclusive [activator, single point] |
| Fc1ccccc1Nc1nc(-c2ccncc2)nc2ccccc12 | inactive |
| Cc1ccc(NC(=O)CSc2nc(N)c3cc4c(nc3n2)CCCC4)cc1 | inconclusive [activator, partial curve] |
| Cc1ccc(C(=O)Nc2cccc(C(=O)N/N=C/c3ccc(O)cc3)c2)cc1 | inactive |
| CC(C)(C)OC(=O)Nc1ncnc2c1ncn2C1OC(CO)C2OC(C)(C)OC21 (centres undefined) | inconclusive [activator, partial curve, poor fit] |
| Cc1cc(OCC(=O)Nc2ccc(CN3CCOCC3)cc2)c2c(C)cc(=O)oc2c1 | inconclusive [activator, single point] |
| COc1cc(NC(=O)COc2ccccc2[N+](=O)[O-])ccc1NC(=O)c1cccs1 | inconclusive [activator, partial curve] |
| CCCN1CCC(=NNc2ccc(S(=O)(=O)N3CCOCC3)cc2[N+](=O)[O-])CC1 | active: 7.31 µM |
| CC(C)(C)c1ccc(NC(=S)NCc2cccnc2)cc1 | inconclusive [activator, single point] |
| Cc1ccc(NC(=O)c2cc(-c3ccccc3)nn2-c2ccccc2)c(Br)c1 | inconclusive [activator, partial curve] |
| Cc1ccc(C)c(N2CCN(S(=O)(=O)c3ccc4c(c3)NC(=O)CO4)CC2)c1 | inconclusive [activator, partial curve] |
| COc1cccc(C(=O)COc2ccc3c(C)cc(=O)oc3c2)c1 | inconclusive [activator, single point] |
| c1ccc(-n2c(-c3cccs3)nc3nc4ccccc4nc32)cc1 | inconclusive [activator, partial curve, poor fit] |
| O=C(Nc1cccc(-c2cccc(Cl)c2)c1)C1CCN(C2CCC2)CC1 | inconclusive [activator, single point] |
| COc1ccc(OC)c(S(=O)(=O)N2CCC(C(=O)NCc3cccnc3)CC2)c1 | inactive |
| CCOC(=O)c1c(-c2cccs2)csc1NC(=O)COC(=O)c1c(C)noc1C | inconclusive [activator, single point] |
| CCOc1ccccc1NC(=O)C1CCCCN1S(=O)(=O)c1ccccc1 (centres undefined) | inactive |
